PubChem BioAssay (NCI)
Where “and” joins values, the source holds several entries; their conditions need not be identical. Equal values may be shown once.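 The compound was tested at five concentrations on cells cultured in 96-well plates, with a 48-hour exposure period. At the GI50, growth is halved. TGI is the concentration that stops growth completely.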

Tested on: NCI-H322M lung
Assay: NCI tumour cell line growth inhibition, 48 h

SMILES	GI50	TGI
CC1=C(C(=O)Nc2ccc(F)c(Cl)c2)C(c2cccc(Oc3ccccc3)c2)NC(=O)N1 (stereo not drawn)	14 µM	28.4 µM
CC(=O)N1C2=CCCC2(C)c2ccccc21 (stereo not drawn)		> 100 µM
N#C/C(=C\c1ccc(Br)cc1)c1nc(-c2cc3ccccc3oc2=O)cs1		> 50 µM
COC(=O)c1c(O)ccc2c1c1c(n2-c2ccc(OC)cc2)C(=O)c2ccccc2C1=O		56.2 µM
Cc1ccc(S(=O)(=O)Nc2nc3ccccc3nc2Nc2ccc3nsnc3c2)cc1	3.81 µM and 2.78 µM	> 100 µM
CCCCCCCSCC1C(=O)C23C(O)C1CCC2C12COC3(O)C(O)C1C(C)(C)CCC2O (stereo not drawn)		33.4 µM
O=C(CC(C(=O)c1cccs1)c1ccsc1)c1ccco1 (stereo not drawn)		> 100 µM
COC(=O)[C@@H](C)C[C@H](Cc1ccccc1)NC(=O)c1csc([C@@H](C[C@H](C(C)C)N(C)C(=O)C2(NC(=O)[C@H]3CCCCN3C)CC2)OC(C)=O)n1	0.0209 µM and 0.00333 µM	> 33.3 µM
C[C@@H]1C[C@@]2(O[C@@H]2C)C(=O)O[C@@H]2CCN3CC=C(COC(=O)[C@]1(C)O)[C@H]23		> 100 µM
CC(C)(C)[Si](C)(C)OCC#C[C@@]1(O)CCCCC1CC(Sc1ccccc1)Sc1ccccc1 (stereo partly drawn)		34.1 µM
O=Cc1ccc(O)c2ncccc12	4.87 µM	74.1 µM
CCOC(=O)C1=NN(c2ccccc2)C2=CC(C)=NN(C)C(=S)N21		> 100 µM
Oc1ccc(N=Nc2ccc(N=Nc3ccccc3)cc2)cc1	2.53 µM	14.6 µM
CC(C)c1ccc2[nH]c(O)c(C3=Nc4ccccc4C3=O)c2c1		> 100 µM
CC1/C(=N/Nc2ccc([N+](=O)[O-])cc2)CC2C3(C)CCC2(C(C)C(=O)O)C(=O)C13 (stereo not drawn)	55.8 µM	> 100 µM
Clc1ccc(SCCCCCCCCCCSc2ccc(Cl)cc2)cc1		> 100 µM
COc1cc(C(=O)CC2(O)C(=O)Nc3c(Cl)cc(Cl)cc32)ccc1O (stereo not drawn)		> 100 µM
O=c1n(CCCCn2c(=O)n(CC3CS3)c3ccccc32)c2ccccc2n1CC1CS1 (stereo not drawn)		> 100 µM
O=C(CCCCCCC(=O)Nc1ccc2c(c1)/C(=C/c1ccc[nH]1)C(=O)N2)NO	0.976 µM	11.5 µM
O=C1C(=C(C(=O)c2ccccc2)C(=O)c2ccccc2)OC(c2ccccc2)=C1C(=O)c1ccccc1		57.1 µM
N#CC(NNC(=O)c1ccccc1O)c1ccccc1 (stereo not drawn)		> 100 µM
[O-]c1c[n+](CC[n+]2cc([O-])on2)no1		> 100 µM
Nc1ncc(CN2CCOCC2)c(-c2ccccc2O)n1		> 100 µM
COc1ccc(/C=C/C(=O)c2cc3c(N)c(C(=O)Nc4ccccc4)sc3nc2C)cc1	0.337 µM	> 50 µM
O=C(OC(/C=C/c1ccccc1)P1(=O)N(Cc2ccccc2)[C@@H]2CCCC[C@H]2N1Cc1ccccc1)c1ccccc1 (stereo partly drawn)		> 100 µM

SMILES	GI50	TGI
N/C(COc1ccc(Cl)cc1)=N\NC(=O)c1ccncc1		> 100 µM
COc1ccc2nc3ccc(OC)cc3c(SCC3CO3)c2c1 (stereo not drawn)		35.4 µM
C1=NCCNCCN=Cc2ccccc2OCc2cccc(n2)COc2ccccc21		> 100 µM
Fc1ccc(Nc2nnc(-c3ccccn3)s2)cc1		> 100 µM
Clc1ccc2c(c1)-c1ccccc1C1=NCCN12	2.09 µM	5.68 µM
Cc1cc(=O)oc2cc(OCc3nc4ccccc4c(=O)[nH]3)ccc12		> 100 µM
Nc1cccc(C#Cc2cccc(C#Cc3cccc(N)n3)n2)n1		> 100 µM
O=[N+]([O-])/C=C/COCc1cc2c(cc1Br)OCO2		> 100 µM
Cc1ccc(/C=C2\CCCC\C2=N\O)cc1		> 100 µM
CCOC(=O)NC(=O)c1cn(CCN2CCN(C(=O)NCCCCCCNC(=O)N3CCN(CCn4cc(C(=O)NC(=O)OCC)c(=O)n(CCN(CC)CC)c4=O)CC3)CC2)c(=O)n(CCC(CC)CC)c1=O		> 100 µM
Cc1cc(N)ccc1C=O		> 100 µM
O=[N+]([O-])c1ccc(NC(=S)Nc2ccccn2)cc1		> 100 µM
COc1ccc2c(c1)CCCN1Cc3ccccc3CC21 (stereo not drawn)		> 100 µM
CC[C@](C)(O)C(=O)O[C@H]1C(=O)O[C@@H]2C[C@H]3C(C)=C[C@H](O)[C@@H](O)[C@]3(C)[C@H]3[C@@]4(O)OC[C@]32[C@@H]1[C@@H](C)[C@H]4O		320 µM
COc1ccc2c(c1)OC(N)=C(C#N)C2c1ccc(F)cc1 (stereo not drawn)	5.68 µM	> 100 µM
COc1ccc([C@H](NC(=O)c2ccccc2)[C@@H](O)C(=O)O[C@H]2C[C@@]3(O)C(OC(=O)c4ccccc4)C4[C@](C)(C(=O)[C@H](OC(C)=O)C(=C2C)C3(C)C)[C@@H](O)C[C@H]2OC[C@@]42OC(C)=O)cc1 (stereo partly drawn)		> 10 µM
O=C1C(=O)c2ccccc2C(O)=C1CCCCCCCCC1CCCCC1		29.1 µM
N#CN1CCC=C(c2cc3ccccc3[nH]2)C1		> 448 µM
C=C(C)[C@H](O)C(O)CC(C)[C@@H]1CCC23CC12CCC1[C@@]2(C)CCC(OC(C)=O)C(C)(C)C2CC(OC2OC(COC(C)=O)C(O)C(O)C2O)[C@]13C (stereo partly drawn)		12.2 µM
CN(C)/C=C/c1ccncc1		> 100 µM
O=C1C[C@H]2CC3(CC[C@H]2CN1)OCCO3		> 100 µM
COc1ccc(CCc2ccccc2CC(=O)O)cc1		> 100 µM
Nc1nc(Cl)cc(NCCCCCCCCCCCCNc2cc(Cl)nc(N)n2)n1		> 100 µM
Cc1c(F)c(N)c2c(=O)cc(-c3ccc(NC(=O)[C@@H](N)CCCCN)c(F)c3)oc2c1F		27 µM and 21.6 µM
COc1cc(C2c3cc4c(cc3OC(NCc3ccccc3)C2C)OCO4)cc(OC)c1OC (stereo not drawn)		> 100 µM

SMILES	GI50	TGI
Cc1ccc(S(=O)(=O)NC2=NS(=O)(=O)c3cc(C)c(Cl)cc3S2)cc1		> 100 µM
c1ccc2c3c([nH]c2c1)C1(CCCCC1)c1c([nH]c2ccccc12)C31CCCCC1		> 100 µM
O=C(NCCN1CCCC1)c1cn2c(ccc3sc4ccccc4c(=O)c32)n1		20.3 µM
COc1ccc(NS(=O)c2ccc(OC)cc2)cc1 (stereo not drawn)		> 100 µM
CCOC(=O)C(=CNC(=S)Nc1c(CC)cccc1CC)C(=O)OCC		> 100 µM
C/C=C/C=C\C1OC(O)([C@H](CC)C(=O)NC/C=C/C=C(\C)[C@H](OC)C(C)C2OC(\C=C/C=C/C=C(\C)C(=O)c3c(O)ccn(C)c3=O)[C@H](O)[C@@H]2O)C(O)C(O)C1(C)C (stereo partly drawn)		> 100 µM
O=C(/C=C1/NC(=O)CS1)Nc1ccccc1		> 100 µM
COC1=CC(=O)[C@]2(C)[C@H](C1=O)C(C)[C@H]2c1ccccc1 (stereo partly drawn)		> 100 µM
Clc1nc(Cl)c(Cc2ccccc2)c(Cl)n1		34.2 µM
Cc1ccc(/C(O)=C/c2nc3ccccc3[nH]c2=O)c(C)c1		> 60.5 µM
COC(=O)/C(=C\c1cn(C(C)=O)c2ccccc12)P(=O)(OC)OC		32 µM
COc1cc(-c2oc(C=Nc3ccccc3)c([N+](=O)[O-])c2-c2ccc(O)c(OC)c2)ccc1O		> 100 µM
c1ccc(SC(CCCCOC2CCCCO2)Sc2ccccc2)cc1 (stereo not drawn)		> 100 µM
CC(=O)c1cccc(NC(=O)C(=O)C(C(=O)c2ccccc2F)C2OC(=O)c3ccccc32)c1 (stereo not drawn)		> 100 µM
COc1ccc2nc(C)cc(Nc3ccccc3O)c2c1	28.8 µM	86 µM
CCOC(=O)c1nc2ccccc2nc1Oc1ccc(OC)cc1		> 100 µM
COC(=O)[C@@]1(O)C[C@H]2O[C@]1(C)n1c3ccccc3c3c4c(c5c6ccccc6n2c5c31)C(=O)NC4	1.14 µM	4.38 µM
CCCN(CCC)C(=O)[C@H](CC)[C@@H]1CC[C@@H](C)[C@@H]([C@H](C)[C@@H](O)[C@@H](C)C(=O)[C@H](CC)C2O[C@]3(C=C[C@@H](O)[C@]4(CC[C@@](C)([C@H]5CC[C@](O)(CC)[C@H](C)O5)O4)O3)[C@H](C)C[C@@H]2C)O1 (stereo partly drawn)	2.38 µM	7.58 µM
COc1cc(C2c3cc4c(cc3[C@@H](NCCCN(C)C)[C@H]3COC(=O)C23)OCO4)cc(OC)c1O (stereo partly drawn)	1.16 µM and 2.68 µM	7.16 µM and 16.4 µM
O=C(NCP(=O)(O)O)c1cccnc1		> 100 µM
C=CC(=O)Nc1cccc(C)c1Nc1ncc2cc(-c3c(Cl)c(OC)cc(OC)c3Cl)ccc2n1	5.81 µM	47.8 µM
C=CCN=C1NC(=O)C(CC(=O)Nc2ccc(C)cc2)S1 (stereo not drawn)		> 100 µM
N#CC(C#N)=C1SCC(=O)CS1		> 100 µM
Cc1csc2nc3[nH]ncc3c(=O)n12		> 100 µM
Cn1c(=O)c(C(=O)NC(=O)OCc2ccccc2)cn(CCSCCOC(=O)NCCCCCCNC(=O)OCCSCCn2cc(C(=O)NC(=O)OCc3ccccc3)c(=O)n(C)c2=O)c1=O		> 100 µM

SMILES	GI50	TGI
O/N=C1\CCc2cc3c(cc21)CCC3		> 100 µM
NS(=O)(=O)c1nnc(/N=C(/CCC(=O)O)C(=O)O)s1		> 100 µM
CC1(C)C2C/C(=C\c3ccccc3)C(=O)C1C2 (stereo not drawn)		> 100 µM
C=CCCCCCC(O)C(O)C/C=C\C/C=C\CC (stereo not drawn)		> 18.8 µM
CC(=O)OC[C@@H](OC(C)=O)[C@@H](OC(C)=O)[C@H]1OC[C@@H]2C[C@H]([C@H]1OC(C)=O)N(Cc1ccccc1)O2		> 100 µM
C=C1C(=O)O[C@H]2[C@H]1CC/C(CNS(=O)(=O)c1cccc3ccccc13)=C\CC[C@@]1(C)O[C@@H]21	10.8 µM	23 µM
ClCc1ccc2ccc3ccc(CCl)nc3c2n1		12.6 µM
CC(C)(c1ccc(OC#N)cc1)c1ccc(OC#N)cc1		> 100 µM
C[CH2][Sn]([Cl])([Cl])[CH2]C	> 100 µM	> 100 µM
O=C1CCCC1NC(=O)C(F)(F)F (stereo not drawn)		> 100 µM
COc1ccc(/C(C)=N/NC(=O)c2ccncc2)cc1OC		> 10 µM
CCCCc1ccc(Nc2nc(N)c3ncn(COCCO)c3n2)cc1		> 100 µM
CC(=O)N1N=C(c2c(O)ccc3ccccc23)CC1c1ccc(Cl)cc1 (stereo not drawn)		> 100 µM
OC(C/C(=N\N=C(/CC(O)(C(F)(F)F)C(F)(F)F)c1ccccc1)c1ccccc1)(C(F)(F)F)C(F)(F)F		> 10 µM
CN1CCN(CCCCN2c3ccccc3Sc3ccc(N=[N+]=[N-])cc32)CC1		17.9 µM
C/C(=N/NC(=S)NCCc1ccccn1)c1cnccn1		> 100 µM
Cc1cc(-c2nc3cc(O)ccc3s2)ccc1N		> 100 µM
CS(=O)(=O)Nc1cc(-c2ccc3ncnc(Nc4ccc5c(cnn5Cc5ccccc5F)c4)c3c2)cnc1Cl	2.78 µM	20 µM
O=C(/C=C/c1ccc(C(F)(F)F)cc1)c1ccc(Nc2nc(NCCO)nc(N3CCOCC3)n2)cc1	2.63 µM	10.7 µM
O=P1(O)c2ccccc2Nc2cc(C(F)(F)F)ccc21		> 100 µM
Cc1ccc(N2C(=O)/C(=C/c3ccc(N(CCC#N)CCC#N)cc3C)N=C2c2cc([N+](=O)[O-])ccc2Cl)cc1		> 100 µM
COc1cc(C2(O)c3ccccc3C3=NCCN32)cc(OC)c1OC (stereo not drawn)		> 100 µM
COc1cccc2c(=O)c3c(sc12)c(NCCN(C)C)nc1ccccc13	1.6 µM	3.2 µM
